{
  "source": "paper PMC4336329",
  "about": "(PLoS ONE, 2015)",
  "note": "The whole screen tested about 310,000 compounds, of which about 14,000 (4.5%) showed an effect of 50% or more. Effects have a minus sign here. Some of the results follow.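 Note: peak tail current of the secondary pulse compared with the same well before compound.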",
  "data": [
    {"molecular_target": "human ether-à-go-go-related gene (hERG) potassium channel (human, UniProt Q12809)", "sequence (Q12809 whole entry, looked up)": "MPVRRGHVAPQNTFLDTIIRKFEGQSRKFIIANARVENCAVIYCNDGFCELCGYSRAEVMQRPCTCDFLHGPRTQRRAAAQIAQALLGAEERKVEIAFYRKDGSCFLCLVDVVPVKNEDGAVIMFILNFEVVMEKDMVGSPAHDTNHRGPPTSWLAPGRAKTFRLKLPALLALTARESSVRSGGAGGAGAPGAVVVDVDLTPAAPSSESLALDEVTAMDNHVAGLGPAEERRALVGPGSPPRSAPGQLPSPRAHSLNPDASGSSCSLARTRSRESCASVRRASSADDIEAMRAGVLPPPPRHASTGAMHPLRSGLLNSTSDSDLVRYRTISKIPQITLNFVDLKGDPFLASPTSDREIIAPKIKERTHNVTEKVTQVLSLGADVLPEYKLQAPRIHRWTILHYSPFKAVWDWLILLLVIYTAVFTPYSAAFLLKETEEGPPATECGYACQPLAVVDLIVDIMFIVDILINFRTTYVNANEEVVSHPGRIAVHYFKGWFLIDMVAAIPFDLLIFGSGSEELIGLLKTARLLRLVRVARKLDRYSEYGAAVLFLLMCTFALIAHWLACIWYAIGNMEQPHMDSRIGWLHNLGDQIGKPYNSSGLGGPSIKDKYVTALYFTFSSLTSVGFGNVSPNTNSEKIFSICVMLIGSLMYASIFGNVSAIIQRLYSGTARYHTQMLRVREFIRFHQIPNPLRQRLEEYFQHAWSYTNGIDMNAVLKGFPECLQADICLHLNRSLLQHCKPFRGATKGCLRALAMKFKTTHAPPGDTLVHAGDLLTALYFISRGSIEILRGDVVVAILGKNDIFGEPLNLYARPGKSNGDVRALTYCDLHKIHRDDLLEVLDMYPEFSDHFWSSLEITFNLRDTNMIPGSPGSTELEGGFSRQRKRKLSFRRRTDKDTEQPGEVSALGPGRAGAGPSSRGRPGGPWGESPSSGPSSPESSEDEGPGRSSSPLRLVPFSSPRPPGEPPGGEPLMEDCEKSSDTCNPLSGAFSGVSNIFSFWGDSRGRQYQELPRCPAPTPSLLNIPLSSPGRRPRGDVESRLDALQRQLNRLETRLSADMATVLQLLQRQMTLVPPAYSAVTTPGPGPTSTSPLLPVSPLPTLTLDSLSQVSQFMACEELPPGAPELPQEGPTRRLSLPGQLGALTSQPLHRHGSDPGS", "test": "primary screen, population patch clamp on CHO cells stably expressing hERG", "units": {"hERG current change (%, negative = inhibition) at 10uM": "%"}, "values": [
      {"compound": "O=C(Nc1ccc(Cl)cc1)N[C@@H]1c2c(ccc3ccccc23)OC[C@@H]1CO", "hERG current change (%, negative = inhibition) at 10uM": 9.18},
      {"compound": "CC(=O)Nc1ccc(-n2nnnc2SCC(=O)N2CCN(C(=O)c3ccco3)CC2)cc1", "hERG current change (%, negative = inhibition) at 10uM": 1.63},
      {"compound": "O=C(NCCc1ccccc1)c1ccc(-c2ccccc2Cl)o1", "hERG current change (%, negative = inhibition) at 10uM": 2.29},
      {"compound": "CCN(CC)S(=O)(=O)c1ccc(/C=C/C(=O)O)cc1", "hERG current change (%, negative = inhibition) at 10uM": 6.39},
      {"compound": "Cc1cccc(Cc2nnc(CCC(=O)N(C)CCc3ccccc3)o2)c1", "hERG current change (%, negative = inhibition) at 10uM": 2.18},
      {"compound": "O=C(N/N=C/c1coc2ccccc2c1=O)c1cccc([N+](=O)[O-])c1", "hERG current change (%, negative = inhibition) at 10uM": 26.8},
      {"compound": "O=C(NCc1ccco1)C1CCN(S(=O)(=O)c2ccccc2C(F)(F)F)CC1", "hERG current change (%, negative = inhibition) at 10uM": -10.5},
      {"compound": "O=C1C2CC=CCC2C(=O)N1c1n[nH]c(-c2ccccc2)n1", "note": "(centres unmarked)", "hERG current change (%, negative = inhibition) at 10uM": -8.69},
      {"compound": "CCOC(=O)C1=c2s/c(=C\\c3cccnc3)c(=O)n2C(N)=C(C(=O)OC)C1c1cccnc1", "note": "(centres unmarked)", "hERG current change (%, negative = inhibition) at 10uM": 14.7},
      {"compound": "NC(=O)Cc1ccc(C(=O)c2ccc(F)cc2)s1", "hERG current change (%, negative = inhibition) at 10uM": 31.3},
      {"compound": "Oc1ccc(Cl)cc1Nc1nc(NCC2CCCO2)c2ccccc2n1", "note": "(centres unmarked)", "hERG current change (%, negative = inhibition) at 10uM": 23},
      {"compound": "C/C(=N\\NC(=O)c1nnn(-c2nonc2N)c1CN(C)c1ccccc1)c1ccc(O)cc1", "hERG current change (%, negative = inhibition) at 10uM": 6.58},
      {"compound": "Cc1cccc2c(=O)cc(C)n(CC(N)=O)c12", "hERG current change (%, negative = inhibition) at 10uM": 7.6},
      {"compound": "COc1ccc(C(=O)NC(C)c2nnc(SCc3ccc(Cl)c(Cl)c3)n2C)cc1", "note": "(centres unmarked)", "hERG current change (%, negative = inhibition) at 10uM": 7.24},
      {"compound": "Cc1sc2ncn(CC(=O)N3CCC4(CC3)OCCO4)c(=O)c2c1C", "hERG current change (%, negative = inhibition) at 10uM": 9.55},
      {"compound": "CC1(C)N=C(N)N=C(N)N1c1ccc(Oc2ccc(Cl)cc2)c(Cl)c1.Cl", "hERG current change (%, negative = inhibition) at 10uM": -4.13},
      {"compound": "O=C1CCCN1CCCNC(=S)Nc1ccccc1Cl", "hERG current change (%, negative = inhibition) at 10uM": 14.1},
      {"compound": "CCc1nnc(NC(=O)CSc2nnc3c(n2)[nH]c2ccccc23)s1", "hERG current change (%, negative = inhibition) at 10uM": -22.4},
      {"compound": "C=CCN(CC=C)Cc1c(O)ccc2c(=O)c(-c3ccccc3)coc12", "hERG current change (%, negative = inhibition) at 10uM": -16.9},
      {"compound": "COc1ccc(C(=O)N2CCCC(C(=O)c3ccccc3OC)C2)cc1OC", "note": "(centres unmarked)", "hERG current change (%, negative = inhibition) at 10uM": -4.99},
      {"compound": "CCN(CCCNC(=O)c1[nH]c(C)c(C(C)=O)c1C)c1ccccc1", "hERG current change (%, negative = inhibition) at 10uM": -9.9},
      {"compound": "O=C(Cn1cnc2ccccc21)Nc1cccc(S(=O)(=O)N2CCCC2)c1", "hERG current change (%, negative = inhibition) at 10uM": 9.9},
      {"compound": "COc1ccc(/C=N/n2c(=O)[nH]c3c([nH]c4ccc(Cl)cc43)c2=O)cc1CN1CCCCC1", "hERG current change (%, negative = inhibition) at 10uM": -13},
      {"compound": "Cc1cc(NS(=O)(=O)c2ccc(NC(=O)/C=C/c3ccccc3Cl)cc2)no1", "hERG current change (%, negative = inhibition) at 10uM": 18.9},
      {"compound": "COc1ccc(S(=O)(=O)N2CCN(CC(=O)Nc3cccc(OC)c3)CC2)cc1", "hERG current change (%, negative = inhibition) at 10uM": -31.4},
      {"compound": "CC(C)(C)NC(=O)c1c(F)c(F)c(F)c(F)c1F", "hERG current change (%, negative = inhibition) at 10uM": 11.1},
      {"compound": "COc1ccc(-c2noc(CSc3nc(-c4ccccc4)cc(=O)[nH]3)n2)cc1", "hERG current change (%, negative = inhibition) at 10uM": 9.68},
      {"compound": "COc1ccc(N(C(=O)c2ccc(Cl)cc2)C2=CC3CCC(C2)N3C)cc1.Cl", "note": "(centres unmarked)", "hERG current change (%, negative = inhibition) at 10uM": -82},
      {"compound": "COc1ccc(NC(=O)N2CCCC2C(=O)Nc2ccccc2F)cc1", "note": "(centres unmarked)", "hERG current change (%, negative = inhibition) at 10uM": 6.62},
      {"compound": "O=C(Nc1ccc(F)cc1)c1ccc(COc2ccccc2)cc1", "hERG current change (%, negative = inhibition) at 10uM": -5.29},
      {"compound": "CCCCCCCCN[C@H](C)[C@@H](O)c1ccc(SC(C)C)cc1", "hERG current change (%, negative = inhibition) at 10uM": -67.4},
      {"compound": "CCn1c(=O)cc(OCC(=O)NCCCN2CCC(C)CC2)c2ccccc21", "hERG current change (%, negative = inhibition) at 10uM": -8.39},
      {"compound": "Cc1ccc(C(=O)OCC(=O)N(CCc2ccccc2)Cc2ccccc2)cc1S(=O)(=O)N1CCOCC1", "hERG current change (%, negative = inhibition) at 10uM": -15.5},
      {"compound": "Cc1c(C)n(Cc2ccc(F)cc2)c2ccc(C(=O)N3CCN(c4ccccn4)CC3)cc12", "hERG current change (%, negative = inhibition) at 10uM": 9.28},
      {"compound": "CCC(CC)c1nnc(NC(=O)/C=C/c2ccco2)s1", "hERG current change (%, negative = inhibition) at 10uM": 1.91},
      {"compound": "CC(=O)Nc1ccccc1NC(=O)C/C(C)=N/NC(=O)c1cccnc1", "hERG current change (%, negative = inhibition) at 10uM": 11.1},
      {"compound": "CCOc1ccccc1C(=O)NC(C(=O)Nc1ccccc1N1CCOCC1)C(C)C", "note": "(centres unmarked)", "hERG current change (%, negative = inhibition) at 10uM": -24.8},
      {"compound": "C=CCN1C(=O)C2(C(C(=O)OCC)=C(N)Oc3ccccc32)c2c1c1ccccc1oc2=O", "note": "(centres unmarked)", "hERG current change (%, negative = inhibition) at 10uM": -5.52},
      {"compound": "CCS(=O)(=O)Nc1ccc(C(=O)CC2(O)C(=O)Nc3ccccc32)cc1", "note": "(centres unmarked)", "hERG current change (%, negative = inhibition) at 10uM": 14.7},
      {"compound": "CCN1CCN(C(=O)CSc2cc(=O)n(C)c3ccccc23)CC1", "hERG current change (%, negative = inhibition) at 10uM": 4.53},
      {"compound": "CN(C)CCCN(C(=O)c1ccc(C(=O)c2ccccc2)cc1)c1nc2cc3c(cc2s1)OCCO3.Cl", "hERG current change (%, negative = inhibition) at 10uM": -50},
      {"compound": "Cn1cnc2cc(NC(=O)c3cccs3)ccc21", "hERG current change (%, negative = inhibition) at 10uM": 14.6},
      {"compound": "COCC(=O)Nc1cc([N+](=O)[O-])ccc1C", "hERG current change (%, negative = inhibition) at 10uM": 2.06},
      {"compound": "N#Cc1ccc(Oc2ncccn2)cc1", "hERG current change (%, negative = inhibition) at 10uM": 16}
    ]}
  ]
}
